Measurements reported in the supplement of paper PMC8728848.
Some of the results follow.

What was measured:
Assay in all cases: glycan array binding signal (z-score within array); higher = stronger binding
Details in all cases: glycan notation: IUPAC condensed, linker removed
[1] = molecular target: Fuc(a1-3)[Gal3S(b1-4)]GlcNAc6S
Procedure, shortened: (§1)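 From the Consortium for Functional Glycomics database, 3228 arrays were curated, keeping only those whose protein sequence was available. Binding is given as a within-array Z-score averaged across arrays sharing a protein sequence and across linkers. Negative Z-scores can be read as non-binding.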

[2] = molecular target: Fuc(a1-3)[GalNAc(b1-4)]GlcNAc
Procedure, shortened: as §1

[3] = molecular target: Fuc(a1-3)[GalNAc(b1-4)]GlcNAc6S
Procedure, shortened: as §1

Fuc(a1-4)GlcNAc = molecular target: Fuc(a1-4)GlcNAc
Procedure, shortened: as §1

Fuc(b1-3)GlcNAc = molecular target: Fuc(b1-3)GlcNAc
Procedure, shortened: as §1

Gal(a1-2)Gal = molecular target: Gal(a1-2)Gal
Procedure, shortened: as §1

Gal(a1-3)Gal = molecular target: Gal(a1-3)Gal
Procedure, shortened: as §1

Gal(a1-3)Gal(b1-3)GlcNAc = molecular target: Gal(a1-3)Gal(b1-3)GlcNAc
Procedure, shortened: as §1

[4] = molecular target: Gal(a1-3)Gal(b1-3)GlcNAc(b1-2)Man
Procedure, shortened: as §1

[5] = molecular target: Gal(a1-3)Gal(b1-3)GlcNAc(b1-2)Man(a1-3)[Gal(a1-3)Gal(b1-3)GlcNAc(b1-2)Man(a1-6)]Man(b1-4)GlcNAc(b1-4)GlcNAc
Procedure, shortened: as §1

[6] = molecular target: Gal(a1-3)Gal(b1-3)GlcNAc(b1-3)GalNAc
Procedure, shortened: as §1

[7] = molecular target: Gal(a1-3)Gal(b1-3)GlcNAc(b1-6)GalNAc
Procedure, shortened: as §1

[8] = molecular target: Gal(a1-3)Gal(b1-3)[Fuc(a1-4)]GlcNAc(b1-2)Man(a1-3)[Gal(a1-3)Gal(b1-3)[Fuc(a1-4)]GlcNAc(b1-2)Man(a1-6)]Man(b1-4)GlcNAc(b1-4)GlcNAc
Procedure, shortened: as §1

Gal(a1-3)Gal(b1-4)Glc = molecular target: Gal(a1-3)Gal(b1-4)Glc
Procedure, shortened: as §1

Gal(a1-3)Gal(b1-4)GlcNAc = molecular target: Gal(a1-3)Gal(b1-4)GlcNAc
Procedure, shortened: as §1

[9] = molecular target: Gal(a1-3)Gal(b1-4)GlcNAc(b1-2)Man
Procedure, shortened: as §1

[10] = molecular target: Gal(a1-3)Gal(b1-4)GlcNAc(b1-2)Man(a1-3)[Gal(a1-3)Gal(b1-4)GlcNAc(b1-2)Man(a1-6)]Man(b1-4)GlcNAc(b1-4)GlcNAc
Procedure, shortened: as §1

[11] = molecular target: Gal(a1-3)Gal(b1-4)GlcNAc(b1-3)GalNAc
Procedure, shortened: as §1

[12] = molecular target: Gal(a1-3)Gal(b1-4)GlcNAc(b1-6)GalNAc
Procedure, shortened: as §1

[13] = molecular target: Gal(a1-3)Gal(b1-4)[Fuc(a1-3)]GlcNAc
Procedure, shortened: as §1

[14] = molecular target: Gal(a1-3)Gal(b1-4)[Fuc(a1-3)]GlcNAc(b1-2)Man(a1-3)[Gal(a1-3)Gal(b1-4)[Fuc(a1-3)]GlcNAc(b1-2)Man(a1-6)]Man(b1-4)GlcNAc(b1-4)GlcNAc
Procedure, shortened: as §1

Gal(a1-3)GalNAc = molecular target: Gal(a1-3)GalNAc
Procedure, shortened: as §1

[15] = molecular target: Gal(a1-3)[Gal(a1-4)]Gal(b1-4)GlcNAc
Procedure, shortened: as §1

[16] = molecular target: Gal(a1-4)Gal(b1-3)GlcNAc(b1-2)Man(a1-3)[Gal(a1-4)Gal(b1-3)GlcNAc(b1-2)Man(a1-6)]Man(b1-4)GlcNAc(b1-4)GlcNAc
Procedure, shortened: as §1

Gal(a1-4)Gal(b1-4)Glc = molecular target: Gal(a1-4)Gal(b1-4)Glc
Procedure, shortened: as §1

Gal(a1-4)Gal(b1-4)GlcNAc = molecular target: Gal(a1-4)Gal(b1-4)GlcNAc
Procedure, shortened: as §1

[17] = molecular target: Gal(a1-4)Gal(b1-4)GlcNAc(b1-2)Man(a1-3)[Gal(a1-4)Gal(b1-4)GlcNAc(b1-2)Man(a1-6)]Man(b1-4)GlcNAc(b1-4)GlcNAc
Procedure, shortened: as §1

[18] = molecular target: Gal(a1-4)Gal(b1-4)GlcNAc(b1-3)Gal(b1-4)Glc
Procedure, shortened: as §1

Gal(a1-4)GlcNAc = molecular target: Gal(a1-4)GlcNAc
Procedure, shortened: as §1

Gal(a1-6)Glc = molecular target: Gal(a1-6)Glc
Procedure, shortened: as §1

Gal(b1-2)Gal = molecular target: Gal(b1-2)Gal
Procedure, shortened: as §1

Gal(b1-3)Gal = molecular target: Gal(b1-3)Gal
Procedure, shortened: as §1

Gal(b1-3)Gal(b1-4)GlcNAc = molecular target: Gal(b1-3)Gal(b1-4)GlcNAc
Procedure, shortened: as §1

Gal(b1-3)GalNAc = molecular target: Gal(b1-3)GalNAc
Procedure, shortened: as §1

[19] = molecular target: Gal(b1-3)GalNAc(a1-3)[Fuc(a1-2)]Gal(b1-4)Glc
Procedure, shortened: as §1

[20] = molecular target: Gal(b1-3)GalNAc(a1-3)[Fuc(a1-2)]Gal(b1-4)GlcNAc
Procedure, shortened: as §1

Gal(b1-3)GalNAc(b1-3)Gal = molecular target: Gal(b1-3)GalNAc(b1-3)Gal
Procedure, shortened: as §1

[21] = molecular target: Gal(b1-3)GalNAc(b1-3)Gal(a1-4)Gal(b1-4)Glc
Procedure, shortened: as §1

[22] = molecular target: Gal(b1-3)GalNAc(b1-4)Gal(b1-4)Glc
Procedure, shortened: as §1

[23] = molecular target: Gal(b1-3)GalNAc(b1-4)[Neu5Ac(a2-3)]Gal(b1-4)Glc
Procedure, shortened: as §1

Gal(b1-3)GlcNAc = molecular target: Gal(b1-3)GlcNAc
Procedure, shortened: as §1

[24] = molecular target: Gal(b1-3)GlcNAc(a1-3)Gal(b1-4)GlcNAc
Procedure, shortened: as §1

[25] = molecular target: Gal(b1-3)GlcNAc(a1-6)Gal(b1-4)GlcNAc
Procedure, shortened: as §1

Gal(b1-3)GlcNAc(b1-2)Man = molecular target: Gal(b1-3)GlcNAc(b1-2)Man
Procedure, shortened: as §1

[26] = molecular target: Gal(b1-3)GlcNAc(b1-2)Man(a1-3)[Gal(b1-3)GlcNAc(b1-2)Man(a1-6)]Man(b1-4)GlcNAc(b1-4)GlcNAc
Procedure, shortened: as §1

B1: OGAN (protein)
chain: MVQKESQATLEERESELSSNPAASAGASLEPPAAPAPGEDNPAGAGGAAVAGAAGGARRFLCGVVEGFYGRPWVMEQRKELFRRLQKWELNTYLYAPKDDYKHRMFWREMYSVEEAEQLMTLISAAREYEIEFIYAISPGLDITFSNPKEVSTLKRKLDQVSQFGCRSFALLFNDIDHNMCAADKEVFSSFAHAQVSITNEIYQYLGEPETFLFCPTEYCGTFCYPNVSQSPYLRTVGEKLLPGIEVLWTGPKVVSKEIPVESIEEVSKIIKRAPVIWDNIHANDYDQKRLFLGPYKGRSTELIPRLKGVLTNPNCEFEANYVAIHTLATWYKSNMNGVRKDVVMTDSEDSTVSIQIKLENEGSDEDIETDVLYSPQMALKLALTEWLQEFGVPHQY
glycan array binding signal (z-score) [1]: -0.076
glycan array binding signal (z-score) [2]: -0.044
glycan array binding signal (z-score) [3]: -0.101
glycan array binding signal (z-score) (Fuc(a1-4)GlcNAc): -0.09
glycan array binding signal (z-score) (Fuc(b1-3)GlcNAc): -0.064
glycan array binding signal (z-score) (Gal(a1-2)Gal): -0.073
glycan array binding signal (z-score) (Gal(a1-3)Gal): -0.111
glycan array binding signal (z-score) (Gal(a1-3)Gal(b1-3)GlcNAc): -0.071
glycan array binding signal (z-score) [4]: -0.026
glycan array binding signal (z-score) [5]: -0.014
glycan array binding signal (z-score) [6]: -0.052
glycan array binding signal (z-score) [7]: -0.077
glycan array binding signal (z-score) [8]: -0.035
glycan array binding signal (z-score) (Gal(a1-3)Gal(b1-4)Glc): -0.059
glycan array binding signal (z-score) (Gal(a1-3)Gal(b1-4)GlcNAc): -0.027
glycan array binding signal (z-score) [9]: -0.037
glycan array binding signal (z-score) [10]: -0.062
glycan array binding signal (z-score) [11]: -0.02
glycan array binding signal (z-score) [12]: -0.025
glycan array binding signal (z-score) [13]: -0.078
glycan array binding signal (z-score) [14]: -0.048
glycan array binding signal (z-score) (Gal(a1-3)GalNAc): -0.065
glycan array binding signal (z-score) [15]: 0
glycan array binding signal (z-score) [16]: -0.031
glycan array binding signal (z-score) (Gal(a1-4)Gal(b1-4)Glc): -0.044
glycan array binding signal (z-score) (Gal(a1-4)Gal(b1-4)GlcNAc): -0.049
glycan array binding signal (z-score) [17]: -0.024
glycan array binding signal (z-score) [18]: -0.078
glycan array binding signal (z-score) (Gal(a1-4)GlcNAc): -0.073
glycan array binding signal (z-score) (Gal(a1-6)Glc): -0.091
glycan array binding signal (z-score) (Gal(b1-2)Gal): -0.07
glycan array binding signal (z-score) (Gal(b1-3)Gal): -0.064
glycan array binding signal (z-score) (Gal(b1-3)Gal(b1-4)GlcNAc): -0.046
glycan array binding signal (z-score) (Gal(b1-3)GalNAc): -0.068
glycan array binding signal (z-score) [19]: -0.07
glycan array binding signal (z-score) [20]: -0.088
glycan array binding signal (z-score) (Gal(b1-3)GalNAc(b1-3)Gal): -0.062
glycan array binding signal (z-score) [21]: -0.054
glycan array binding signal (z-score) [22]: -0.029
glycan array binding signal (z-score) [23]: -0.088
glycan array binding signal (z-score) (Gal(b1-3)GlcNAc): -0.058
glycan array binding signal (z-score) [24]: -0.067
glycan array binding signal (z-score) [25]: -0.01
glycan array binding signal (z-score) (Gal(b1-3)GlcNAc(b1-2)Man): -0.027
glycan array binding signal (z-score) [26]: -0.025
